# Data: the supplement of paper PMC8728848
# This is one part of the list.
# B1: SP8524D-bot-399-27-399 (Bacteroides ovatus) (protein)
# chain: DAKYDTLDTHAYIEEALSSTSQKVTVQATGESFTTLNVHLSNLSSTDNHYKLVTDQSVLDTYNHINGTGYIMLPKDYYTLPETITVKAGQYAADALSIALKAFSQEMMKSGESYALPVKLVLQDGSISPMENTGTFVILAESIIEFSAPMFVGAPSLKANKFTESPETYSQYTIEVRFQVANTADRDRAVFKNGGDDANFILLRFEDPQSDNENYKAHSLVQIVGRNRLYLNPSNSFKPNEWQHLALVCDGSNYRLYINGVDSGVLSIPTGATTFSDVNWFCLGDDSYSRWGNCKILMSEARIWSVVRSASQIQNNMTQVSPKSVGLEAYWRFNEGQGNVFEDATGKGHTLTTSATPTWIDGILSTDKSTEWK
# Key:
# Test in all cases: glycan array binding signal (z-score within array); higher = stronger binding
# Settings in all cases: glycan notation: IUPAC condensed, linker removed
# [1] = target: Fuc(a1-2)Gal(b1-4)GlcNAc(b1-3)Gal(b1-4)GlcNAc(b1-3)Gal(b1-4)GlcNAc
# Method in brief: (§1)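 The binding signal is a Z-score computed within each array and averaged over linkers. Arrays of the same protein sequence at different concentrations or buffers were also averaged together. Data originate from 3228 arrays in the Consortium for Functional Glycomics database, kept only where the protein sequence was available.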
# [2] = target: Fuc(a1-2)Gal(b1-4)GlcNAc(b1-3)GalNAc
# Method in brief: as §1
# [3] = target: Fuc(a1-2)Gal(b1-4)GlcNAc(b1-3)[Fuc(a1-2)Gal(b1-4)GlcNAc(b1-6)]GalNAc
# Method in brief: as §1
# [4] = target: Fuc(a1-2)Gal(b1-4)GlcNAc(b1-3)[Fuc(a1-3)[Gal(b1-4)]GlcNAc(b1-6)]Gal(b1-4)Glc
# Method in brief: as §1
# [5] = target: Fuc(a1-2)Gal(b1-4)GlcNAc(b1-6)GalNAc
# Method in brief: as §1
# [6] = target: Fuc(a1-2)Gal(b1-4)GlcNAc6S
# Method in brief: as §1
# [7] = target: Fuc(a1-2)Gal(b1-4)[Fuc(a1-3)]GlcNAc
# Method in brief: as §1
# [8] = target: Fuc(a1-2)Gal(b1-4)[Fuc(a1-3)]GlcNAc(b1-2)Man(a1-3)[Fuc(a1-2)Gal(b1-4)[Fuc(a1-3)]GlcNAc(b1-2)Man(a1-6)]Man(b1-4)GlcNAc(b1-4)[Fuc(a1-6)]GlcNAc
# Method in brief: as §1
# [9] = target: Fuc(a1-2)Gal(b1-4)[Fuc(a1-3)]GlcNAc(b1-2)[Fuc(a1-2)Gal(b1-4)[Fuc(a1-3)]GlcNAc(b1-4)]Man(a1-3)[Fuc(a1-2)Gal(b1-4)[Fuc(a1-3)]GlcNAc(b1-2)Man(a1-6)]Man(b1-4)GlcNAc(b1-4)GlcNAc
# Method in brief: as §1
# [10] = target: Fuc(a1-2)Gal(b1-4)[Fuc(a1-3)]GlcNAc(b1-3)Gal(b1-4)[Fuc(a1-3)]GlcNAc
# Method in brief: as §1
# [11] = target: Fuc(a1-2)Gal(b1-4)[Fuc(a1-3)]GlcNAc(b1-3)Gal(b1-4)[Fuc(a1-3)]GlcNAc(b1-3)Gal(b1-4)[Fuc(a1-3)]GlcNAc
# Method in brief: as §1
# [12] = target: Fuc(a1-2)Gal(b1-4)[Fuc(a1-3)]GlcNAc(b1-3)GalNAc
# Method in brief: as §1
# [13] = target: Fuc(a1-2)Gal(b1-4)[Fuc(a1-3)]GlcNAc(b1-3)[Neu5Ac(a2-6)Gal(b1-4)GlcNAc(b1-6)]Gal(b1-4)Glc
# Method in brief: as §1
# [14] = target: Fuc(a1-2)Gal3S(b1-4)GlcNAc
# Method in brief: as §1
# [15] = target: Fuc(a1-2)Gal6S(b1-3)GlcNAc
# Method in brief: as §1
# [16] = target: Fuc(a1-2)Gal6S(b1-3)GlcNAc6S
# Method in brief: as §1
# Fuc(a1-2)Gal6S(b1-4)Glc = target: Fuc(a1-2)Gal6S(b1-4)Glc
# Method in brief: as §1
# [17] = target: Fuc(a1-2)Gal6S(b1-4)Glc6S
# Method in brief: as §1
# Fuc(a1-2)[Gal(a1-3)]Gal = target: Fuc(a1-2)[Gal(a1-3)]Gal
# Method in brief: as §1
# [18] = target: Fuc(a1-2)[Gal(a1-3)]Gal(b1-3)GalNAc
# Method in brief: as §1
# [19] = target: Fuc(a1-2)[Gal(a1-3)]Gal(b1-3)GalNAc(b1-3)Gal(a1-4)Gal(b1-4)Glc
# Method in brief: as §1
# [20] = target: Fuc(a1-2)[Gal(a1-3)]Gal(b1-3)GlcNAc
# Method in brief: as §1
# [21] = target: Fuc(a1-2)[Gal(a1-3)]Gal(b1-3)GlcNAc(b1-2)Man(a1-3)[Fuc(a1-2)[Gal(a1-3)]Gal(b1-3)GlcNAc(b1-2)Man(a1-6)]Man(b1-4)GlcNAc(b1-4)GlcNAc
# Method in brief: as §1
# [22] = target: Fuc(a1-2)[Gal(a1-3)]Gal(b1-3)GlcNAc(b1-2)Man(a1-3)[Fuc(a1-2)[Gal(a1-3)]Gal(b1-3)GlcNAc(b1-2)Man(a1-6)]Man(b1-4)GlcNAc(b1-4)[Fuc(a1-6)]GlcNAc
# Method in brief: as §1
# [23] = target: Fuc(a1-2)[Gal(a1-3)]Gal(b1-3)GlcNAc(b1-3)GalNAc
# Method in brief: as §1
# [24] = target: Fuc(a1-2)[Gal(a1-3)]Gal(b1-3)GlcNAc(b1-6)GalNAc
# Method in brief: as §1
# [25] = target: Fuc(a1-2)[Gal(a1-3)]Gal(b1-4)Glc
# Method in brief: as §1
# [26] = target: Fuc(a1-2)[Gal(a1-3)]Gal(b1-4)GlcNAc
# Method in brief: as §1
# [27] = target: Fuc(a1-2)[Gal(a1-3)]Gal(b1-4)GlcNAc(b1-2)Man
# Method in brief: as §1
# [28] = target: Fuc(a1-2)[Gal(a1-3)]Gal(b1-4)GlcNAc(b1-2)Man(a1-3)[Fuc(a1-2)[Gal(a1-3)]Gal(b1-4)GlcNAc(b1-2)Man(a1-6)]Man(b1-4)GlcNAc(b1-4)GlcNAc
# Method in brief: as §1
binder,measurement,setting,value
B1,glycan array binding signal (z-score),[1],-0.049
same,glycan array binding signal (z-score),[2],0.212
same,glycan array binding signal (z-score),[3],-0.242
same,glycan array binding signal (z-score),[4],0.017
same,glycan array binding signal (z-score),[5],0.319
same,glycan array binding signal (z-score),[6],0.15
same,glycan array binding signal (z-score),[7],-0.295
same,glycan array binding signal (z-score),[8],0.132
same,glycan array binding signal (z-score),[9],0.092
same,glycan array binding signal (z-score),[10],-0.34
same,glycan array binding signal (z-score),[11],-0.13
same,glycan array binding signal (z-score),[12],0.451
same,glycan array binding signal (z-score),[13],-0.499
same,glycan array binding signal (z-score),[14],-0.121
same,glycan array binding signal (z-score),[15],-0.091
same,glycan array binding signal (z-score),[16],0.443
same,glycan array binding signal (z-score),Fuc(a1-2)Gal6S(b1-4)Glc,-0.456
same,glycan array binding signal (z-score),[17],0.037
same,glycan array binding signal (z-score),Fuc(a1-2)[Gal(a1-3)]Gal,1.34
same,glycan array binding signal (z-score),[18],0.028
same,glycan array binding signal (z-score),[19],0.312
same,glycan array binding signal (z-score),[20],0.17
same,glycan array binding signal (z-score),[21],-0.173
same,glycan array binding signal (z-score),[22],-0.47
same,glycan array binding signal (z-score),[23],-0.378
same,glycan array binding signal (z-score),[24],-0.387
same,glycan array binding signal (z-score),[25],-0.352
same,glycan array binding signal (z-score),[26],-0.05
same,glycan array binding signal (z-score),[27],-0.424
same,glycan array binding signal (z-score),[28],0.041
